Measured values as given in PMC12820563.
The other results are listed elsewhere or left out. The list includes weakly bound sequences.

Target: T1, MBP-FoxP3dN (UniProt Q99JB6)
T1 sequence: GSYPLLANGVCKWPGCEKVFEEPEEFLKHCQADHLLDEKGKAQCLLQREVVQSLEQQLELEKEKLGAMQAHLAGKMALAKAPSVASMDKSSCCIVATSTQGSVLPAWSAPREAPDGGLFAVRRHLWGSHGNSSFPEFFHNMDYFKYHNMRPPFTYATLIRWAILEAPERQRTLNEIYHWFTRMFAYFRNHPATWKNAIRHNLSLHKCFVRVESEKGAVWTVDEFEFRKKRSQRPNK
Assay: PD-seq (MBP pull-down with sequencing)
Conditions: 20 mM Tris-HCl pH 7.5, 100 mM NaCl, 1.5 mM MgCl2, 0.4 uM protein, 0.1 uM dsDNA library, 30 min, room temperature, amylose pull-down; high values mean tight binding; double strand, one strand shown

Sequence | binding signal (RPM ratio (pull-down/input))
GATGATTGTTCTCCCAGCTGATGAATTTAAGGATTCGAGTAAACAAATTTTCCTAATCTTTCTGTTCAAGCGCCATCTAC | 0.302
GATGATTGTTCTCCCAGCTGATGAATTCTGCTCGTCGAGTAAACAAATTTTCCTAATCTTTCTGTTCAAGCGCCATCTAC | 0.61
GATGATTGTTCTCCCAGCTGATGAATTGTATTCTTCGAGTAAACAAATTTTCCTAATCTTTCTGTTCAAGCGCCATCTAC | 1.92
GATGATTGTTCTCCCAGCTGATGAATTTCCGTCATCGAGTAAACAAATTTTCCTAATCTTTCTGTTCAAGCGCCATCTAC | 0.58
GATGATTGTTCTCCCAGCTGATGAATTTTAGATCTCGAGTAAACAAATTTTCCTAATCTTTCTGTTCAAGCGCCATCTAC | 0.311
GATGATTGTTCTCCCAGCTGATGAATTGCCCGGCTCGAGTAAACAAATTTTCCTAATCTTTCTGTTCAAGCGCCATCTAC | 0.303
GATGATTGTTCTCCCAGCTGATGAATTAGGGTGTTCGAGTAAACAAATTTTCCTAATCTTTCTGTTCAAGCGCCATCTAC | 0.81
GATGATTGTTCTCCCAGCTGATGAATTACCAATATCGAGTAAACAAATTTTCCTAATCTTTCTGTTCAAGCGCCATCTAC | 0.98
GATGATTGTTCTCCCAGCTGATGAATTATTACAATCGAGTAAACAAATTTTCCTAATCTTTCTGTTCAAGCGCCATCTAC | 0.712
GATGATTGTTCTCCCAGCTGATGAATTAAGGGGTTCGAGTAAACAAATTTTCCTAATCTTTCTGTTCAAGCGCCATCTAC | 0.443
GATGATTGTTCTCCCAGCTGATGAATTCGTCGTCTCGAGTAAACAAATTTTCCTAATCTTTCTGTTCAAGCGCCATCTAC | 1.31
GATGATTGTTCTCCCAGCTGATGAATTAGTTGTCTCGAGTAAACAAATTTTCCTAATCTTTCTGTTCAAGCGCCATCTAC | 5.87
GATGATTGTTCTCCCAGCTGATGAATTGTCAGTCTCGAGTAAACAAATTTTCCTAATCTTTCTGTTCAAGCGCCATCTAC | 0.476
GATGATTGTTCTCCCAGCTGATGAATTAATGGACTCGAGTAAACAAATTTTCCTAATCTTTCTGTTCAAGCGCCATCTAC | 0.419
GATGATTGTTCTCCCAGCTGATGAATTAGTTGAATCGAGTAAACAAATTTTCCTAATCTTTCTGTTCAAGCGCCATCTAC | 0.579
GATGATTGTTCTCCCAGCTGATGAATTAAATCGATCGAGTAAACAAATTTTCCTAATCTTTCTGTTCAAGCGCCATCTAC | 0.319
GATGATTGTTCTCCCAGCTGATGAATTTATAGGCTCGAGTAAACAAATTTTCCTAATCTTTCTGTTCAAGCGCCATCTAC | 0.83
GATGATTGTTCTCCCAGCTGATGAATTGGCAGGTTCGAGTAAACAAATTTTCCTAATCTTTCTGTTCAAGCGCCATCTAC | 0.326
GATGATTGTTCTCCCAGCTGATGAATTCTTCCGCTCGAGTAAACAAATTTTCCTAATCTTTCTGTTCAAGCGCCATCTAC | 0.222
GATGATTGTTCTCCCAGCTGATGAATTCTTGGTATCGAGTAAACAAATTTTCCTAATCTTTCTGTTCAAGCGCCATCTAC | 0.429
GATGATTGTTCTCCCAGCTGATGAATTGGCTCAATCGAGTAAACAAATTTTCCTAATCTTTCTGTTCAAGCGCCATCTAC | 0.265

Sequence | binding signal (RPM ratio (pull-down/input))
GATGATTGTTCTCCCAGCTGATGAATTTTGAGCATCGAGTAAACAAATTTTCCTAATCTTTCTGTTCAAGCGCCATCTAC | 0.906
GATGATTGTTCTCCCAGCTGATGAATTTCGCCCGTCGAGTAAACAAATTTTCCTAATCTTTCTGTTCAAGCGCCATCTAC | 2.29
GATGATTGTTCTCCCAGCTGATGAATTCGAAAAGTCGAGTAAACAAATTTTCCTAATCTTTCTGTTCAAGCGCCATCTAC | 0.177
GATGATTGTTCTCCCAGCTGATGAATTTACCTTATCGAGTAAACAAATTTTCCTAATCTTTCTGTTCAAGCGCCATCTAC | 0.792
GATGATTGTTCTCCCAGCTGATGAATTGCGGACCTCGAGTAAACAAATTTTCCTAATCTTTCTGTTCAAGCGCCATCTAC | 0.612
GATGATTGTTCTCCCAGCTGATGAATTCTCAAGGTCGAGTAAACAAATTTTCCTAATCTTTCTGTTCAAGCGCCATCTAC | 0.153
GATGATTGTTCTCCCAGCTGATGAATTACCCAGCTCGAGTAAACAAATTTTCCTAATCTTTCTGTTCAAGCGCCATCTAC | 0.235
GATGATTGTTCTCCCAGCTGATGAATTTATCGCCTCGAGTAAACAAATTTTCCTAATCTTTCTGTTCAAGCGCCATCTAC | 1.07
GATGATTGTTCTCCCAGCTGATGAATTAGCCACATCGAGTAAACAAATTTTCCTAATCTTTCTGTTCAAGCGCCATCTAC | 1.19
GATGATTGTTCTCCCAGCTGATGAATTAGTCACATCGAGTAAACAAATTTTCCTAATCTTTCTGTTCAAGCGCCATCTAC | 0.91
GATGATTGTTCTCCCAGCTGATGAATTGTACAACTCGAGTAAACAAATTTTCCTAATCTTTCTGTTCAAGCGCCATCTAC | 0.446
GATGATTGTTCTCCCAGCTGATGAATTGTACGGATCGAGTAAACAAATTTTCCTAATCTTTCTGTTCAAGCGCCATCTAC | 0.269
GATGATTGTTCTCCCAGCTGATGAATTTCAGTACTCGAGTAAACAAATTTTCCTAATCTTTCTGTTCAAGCGCCATCTAC | 0.341
GATGATTGTTCTCCCAGCTGATGAATTGGCAATCTCGAGTAAACAAATTTTCCTAATCTTTCTGTTCAAGCGCCATCTAC | 1.21
GATGATTGTTCTCCCAGCTGATGAATTTGCAGCTTCGAGTAAACAAATTTTCCTAATCTTTCTGTTCAAGCGCCATCTAC | 1.22
GATGATTGTTCTCCCAGCTGATGAATTAGTTAGGTCGAGTAAACAAATTTTCCTAATCTTTCTGTTCAAGCGCCATCTAC | 1.51
GATGATTGTTCTCCCAGCTGATGAATTTCCAACTTCGAGTAAACAAATTTTCCTAATCTTTCTGTTCAAGCGCCATCTAC | 0.278
GATGATTGTTCTCCCAGCTGATGAATTGAACTTGTCGAGTAAACAAATTTTCCTAATCTTTCTGTTCAAGCGCCATCTAC | 0.381
GATGATTGTTCTCCCAGCTGATGAATTTTGGGACTCGAGTAAACAAATTTTCCTAATCTTTCTGTTCAAGCGCCATCTAC | 0.331
GATGATTGTTCTCCCAGCTGATGAATTATAAACCTCGAGTAAACAAATTTTCCTAATCTTTCTGTTCAAGCGCCATCTAC | 0.507
GATGATTGTTCTCCCAGCTGATGAATTCCACACTTCGAGTAAACAAATTTTCCTAATCTTTCTGTTCAAGCGCCATCTAC | 0.363

Sequence | binding signal (RPM ratio (pull-down/input))
GATGATTGTTCTCCCAGCTGATGAATTCTGTAGTTCGAGTAAACAAATTTTCCTAATCTTTCTGTTCAAGCGCCATCTAC | 2.64
GATGATTGTTCTCCCAGCTGATGAATTATGAGAGTCGAGTAAACAAATTTTCCTAATCTTTCTGTTCAAGCGCCATCTAC | 0.397
GATGATTGTTCTCCCAGCTGATGAATTTACGGAATCGAGTAAACAAATTTTCCTAATCTTTCTGTTCAAGCGCCATCTAC | 0.368
GATGATTGTTCTCCCAGCTGATGAATTTAAGGGTTCGAGTAAACAAATTTTCCTAATCTTTCTGTTCAAGCGCCATCTAC | 0.431
GATGATTGTTCTCCCAGCTGATGAATTAGAAGCGTCGAGTAAACAAATTTTCCTAATCTTTCTGTTCAAGCGCCATCTAC | 0.488
GATGATTGTTCTCCCAGCTGATGAATTGGACCCATCGAGTAAACAAATTTTCCTAATCTTTCTGTTCAAGCGCCATCTAC | 0.274
GATGATTGTTCTCCCAGCTGATGAATTACGAATGTCGAGTAAACAAATTTTCCTAATCTTTCTGTTCAAGCGCCATCTAC | 0.705
GATGATTGTTCTCCCAGCTGATGAATTGAGTCATTCGAGTAAACAAATTTTCCTAATCTTTCTGTTCAAGCGCCATCTAC | 0.966
GATGATTGTTCTCCCAGCTGATGAATTCGTCCATTCGAGTAAACAAATTTTCCTAATCTTTCTGTTCAAGCGCCATCTAC | 0.523
GATGATTGTTCTCCCAGCTGATGAATTGGTCTATTCGAGTAAACAAATTTTCCTAATCTTTCTGTTCAAGCGCCATCTAC | 0.712
GATGATTGTTCTCCCAGCTGATGAATTATAGCTCTCGAGTAAACAAATTTTCCTAATCTTTCTGTTCAAGCGCCATCTAC | 0.514
GATGATTGTTCTCCCAGCTGATGAATTGCGCCGCTCGAGTAAACAAATTTTCCTAATCTTTCTGTTCAAGCGCCATCTAC | 2.82
GATGATTGTTCTCCCAGCTGATGAATTCCTCTCTTCGAGTAAACAAATTTTCCTAATCTTTCTGTTCAAGCGCCATCTAC | 0.21
GATGATTGTTCTCCCAGCTGATGAATTAAGGACCTCGAGTAAACAAATTTTCCTAATCTTTCTGTTCAAGCGCCATCTAC | 0.27
GATGATTGTTCTCCCAGCTGATGAATTCCGGCGATCGAGTAAACAAATTTTCCTAATCTTTCTGTTCAAGCGCCATCTAC | 0.388
GATGATTGTTCTCCCAGCTGATGAATTCACCCTCTCGAGTAAACAAATTTTCCTAATCTTTCTGTTCAAGCGCCATCTAC | 0.324
GATGATTGTTCTCCCAGCTGATGAATTGCTGATGTCGAGTAAACAAATTTTCCTAATCTTTCTGTTCAAGCGCCATCTAC | 0.843
GATGATTGTTCTCCCAGCTGATGAATTAATGTCCTCGAGTAAACAAATTTTCCTAATCTTTCTGTTCAAGCGCCATCTAC | 0.913
GATGATTGTTCTCCCAGCTGATGAATTCGGTGGGTCGAGTAAACAAATTTTCCTAATCTTTCTGTTCAAGCGCCATCTAC | 0.659
GATGATTGTTCTCCCAGCTGATGAATTCAATGTGTCGAGTAAACAAATTTTCCTAATCTTTCTGTTCAAGCGCCATCTAC | 2.05
GATGATTGTTCTCCCAGCTGATGAATTACAGTTGTCGAGTAAACAAATTTTCCTAATCTTTCTGTTCAAGCGCCATCTAC | 1.17
